# Source: article PMC4336329 (PLoS ONE, 2015)
# In all, about 310,000 compounds went through this assay and about 2,200 (0.71%) showed an effect of 50% or more. The effect is printed as a negative number. Some of the results follow.
# Target: human ether-à-go-go-related gene (hERG) potassium channel (human, UniProt Q12809)
# Assay: primary screen, population patch clamp on CHO cells stably expressing hERG
# Sequence of human ether-à-go-go-related gene (hERG) potassium channel (Q12809 whole entry, looked up): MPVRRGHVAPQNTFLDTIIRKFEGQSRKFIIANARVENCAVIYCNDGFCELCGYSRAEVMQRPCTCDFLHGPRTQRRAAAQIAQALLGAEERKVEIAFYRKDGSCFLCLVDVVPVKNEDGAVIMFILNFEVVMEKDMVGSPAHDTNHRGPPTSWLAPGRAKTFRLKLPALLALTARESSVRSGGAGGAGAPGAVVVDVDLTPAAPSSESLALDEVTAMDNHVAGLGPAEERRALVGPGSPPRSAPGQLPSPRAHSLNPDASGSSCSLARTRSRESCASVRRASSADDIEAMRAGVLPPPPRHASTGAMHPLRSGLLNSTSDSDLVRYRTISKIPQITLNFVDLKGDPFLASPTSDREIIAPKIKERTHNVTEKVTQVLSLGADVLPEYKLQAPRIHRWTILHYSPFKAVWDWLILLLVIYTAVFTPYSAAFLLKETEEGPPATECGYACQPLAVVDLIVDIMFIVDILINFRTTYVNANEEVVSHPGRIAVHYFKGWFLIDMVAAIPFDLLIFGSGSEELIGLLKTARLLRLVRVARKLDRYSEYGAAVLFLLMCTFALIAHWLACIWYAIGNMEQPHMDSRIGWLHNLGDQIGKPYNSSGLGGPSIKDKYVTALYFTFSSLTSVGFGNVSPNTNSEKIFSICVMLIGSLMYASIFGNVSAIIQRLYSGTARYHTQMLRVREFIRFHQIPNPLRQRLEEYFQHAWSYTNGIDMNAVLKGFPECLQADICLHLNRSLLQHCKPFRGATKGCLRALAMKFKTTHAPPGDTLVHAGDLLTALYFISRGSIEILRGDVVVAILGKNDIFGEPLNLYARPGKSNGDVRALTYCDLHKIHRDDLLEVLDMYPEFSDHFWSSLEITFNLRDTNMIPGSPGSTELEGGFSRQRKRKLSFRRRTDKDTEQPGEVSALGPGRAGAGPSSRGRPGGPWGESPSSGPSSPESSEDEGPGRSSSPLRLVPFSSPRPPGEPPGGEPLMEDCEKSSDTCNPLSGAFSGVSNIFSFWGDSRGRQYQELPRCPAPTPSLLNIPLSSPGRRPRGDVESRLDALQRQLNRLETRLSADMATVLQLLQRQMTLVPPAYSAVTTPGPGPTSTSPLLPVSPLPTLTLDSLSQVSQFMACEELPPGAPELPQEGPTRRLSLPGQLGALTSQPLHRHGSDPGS
row,SMILES,"hERG current change (%, negative = inhibition) at 1uM"
1,Fc1cccc(/C=N/Nc2ccccn2)c1,18.1%
2,O=C(c1ccc(Br)c([N+](=O)[O-])c1)N1CCN(Cc2ccccc2)CC1,-8.05%
3,CCOC(=O)C1C(=O)OC2(CCOC(C)(C)C2)C1C(=O)OCC (stereo not drawn),4.85%
4,Cc1csc(Nc2ccc(C(=O)O)cc2)n1,12.6%
5,COc1ccc(CCN(C)C2CCCN(C(=O)Cn3cnnn3)C2)cc1OC (stereo not drawn),10.7%
6,CCN(CC)CCCNC(=O)c1[nH]c(C)c(C(=O)NC2CCCCC2)c1C,14.3%
7,Cc1csc(SCC(=O)Nc2cc([N+](=O)[O-])ccc2F)n1,11.9%
8,COc1ccccc1C(=O)Nn1c(-c2cccs2)nc2ccccc2c1=O,4.7%
9,O=C(CN1CCN(Cc2ccccc2)CC1)Nc1ccccc1-c1ccccc1,-39.6%
10,CC(=O)c1cnc(-c2ccccc2Cl)s1,13.5%
11,COc1cc2c(cc1NC(=O)CSc1nnc(COc3ccc(Cl)cc3)n1C)oc1ccccc12,14.3%
12,CCCCn1c(O)c(N=NC(=O)c2ccco2)c2ccccc21,8.21%
13,CC(=O)c1ccc(NC(=O)N2CCc3ccccc3C2)cc1,2.02%
14,CNC(=O)CSc1nnc(SCCC(=O)O)s1,11.1%
15,COc1ccc(C(=O)Nc2nncs2)cc1S(=O)(=O)N1CCOCC1,12.4%
16,O=C(NCCOc1ccccc1)C1CCC(=O)N(CCc2ccc(Cl)cc2)C1 (stereo not drawn),-45%
17,Cc1ccc(CN2CCN(CCCn3cccn3)CC2CCO)cc1 (stereo not drawn),-23.7%
18,COc1ccc(CCNC(=O)CC2Nc3cc(C)c(C)cc3NC2=O)cc1OC (stereo not drawn),2.08%
19,CCOC(=O)c1sc(NC(=O)c2ccc(C)o2)nc1C,-0.302%
20,O=C(CCCc1ccccc1)NCCN1CCOCC1,5.14%
21,COc1ccccc1CNc1nc(S(=O)(=O)c2ccccc2)c(Cl)s1,9.35%
22,CN(CC(=O)Nc1ccc2c(c1)OCCO2)Cc1nc2ccccc2c(=O)[nH]1,11.2%
23,CCCCNC(=O)C(=O)Nc1cc2c3c(c1)CCC(=O)N3CCC2,8.99%

row,SMILES,"hERG current change (%, negative = inhibition) at 1uM"
1,Cc1ccc(/C=C(\NC(=O)c2ccccc2)C(=O)NCCc2ccccn2)o1,1.43%
2,O=C(NNS(=O)(=O)c1ccccc1)c1ccncc1,16.7%
3,Cl.O=C(O)c1ccc(CN2CCCCC2)o1,13.5%
4,CC(C)(C)N=Cc1cc(-c2ccccc2)sc1O,-10.3%
5,O=C(NCCO)C(=O)Nc1cc2c3c(c1)CC(=O)N3CCC2,20.3%
6,CCC(=O)Nc1ccc(C(=O)Cn2ncc(Cl)c(Cl)c2=O)cc1,12.5%
7,Cc1ccc(OCC(=O)N(C)CC(=O)N(CC(C)C)c2c(N)n(CC(C)C)c(=O)[nH]c2=O)c(C)c1,13.2%
8,CN(CC(=O)N1CCN(c2ccccc2)CC1)S(=O)(=O)c1cnc[nH]1,12.1%
9,O=C(O/N=C1/CCCc2occc21)c1ccccc1,9.06%
10,CCOC(=O)c1nn(-c2ccccc2)c(C#N)c1NC(=O)c1nn(CC)cc1Br,16.1%
11,COc1ccc(CC(=O)NCC(=O)Nc2ccccc2Br)cc1,12.3%
12,Clc1ccc(NCc2cccnc2)cc1,2.53%
13,Cc1ccc(NC(=S)N(CCN(C)C)Cc2cc3cc(C)cc(C)c3[nH]c2=O)cc1,6.8%
14,CCC1(CC)C(=O)N(C)C(=O)NC1=NCc1ccccc1,-1.22%
15,CCN(CC)CCNC(=O)c1ccc2c(c1NCCO)C(=O)c1ccccc1C2=O,0.921%
16,O=C(O)CC(NC(=O)C12CC3CC(CC(C3)C1)C2)c1ccc(F)cc1 (stereo not drawn),17.9%
17,CCC(C)n1[nH]c(=O)c2c(C)cc(C)nc21 (stereo not drawn),13.9%
18,CC(=O)/C=C/c1ccc2ccccc2n1,1.13%
19,COc1cc(C(=O)NC(c2ccccc2)c2ccccc2)cc(OC)c1C,15.2%
20,N#Cc1ccc(C23CC4(C2)[C@H](CN(Cc2ccc(C(F)(F)F)cc2)[C@@H]4c2ccccc2)C3c2ccc(C(F)(F)F)cc2)cc1 (stereo partly drawn),15.5%
21,COc1cccc(Oc2cn[nH]c2-c2ccc(O)cc2O)c1,1.1%
22,CS(=O)(=O)Nc1ccc(C2=NN(S(C)(=O)=O)C(c3ccccc3)C2)cc1 (stereo not drawn),-40.6%
